Results are given in words; binding and its absence hold for the method and conditions named. Binding seen in cells or lysates may run through a third protein. Some results given as binding are weak or reduced against the parent protein; the word gives no strength. For some of these results: Sequences can lack the tags named with a protein.
Columns and labels:
[1] = target: T1, TAP-JIP1 (in Neuro2a) (mouse) (UniProt Q9WVI9); test: pull-down; lysates of Neuro2a cells transiently expressing TAP-JIP1, treated with SP600125 (20 uM) or DMSO for 2 hours, precipitated with streptavidin sepharose, western blot
T1 sequence: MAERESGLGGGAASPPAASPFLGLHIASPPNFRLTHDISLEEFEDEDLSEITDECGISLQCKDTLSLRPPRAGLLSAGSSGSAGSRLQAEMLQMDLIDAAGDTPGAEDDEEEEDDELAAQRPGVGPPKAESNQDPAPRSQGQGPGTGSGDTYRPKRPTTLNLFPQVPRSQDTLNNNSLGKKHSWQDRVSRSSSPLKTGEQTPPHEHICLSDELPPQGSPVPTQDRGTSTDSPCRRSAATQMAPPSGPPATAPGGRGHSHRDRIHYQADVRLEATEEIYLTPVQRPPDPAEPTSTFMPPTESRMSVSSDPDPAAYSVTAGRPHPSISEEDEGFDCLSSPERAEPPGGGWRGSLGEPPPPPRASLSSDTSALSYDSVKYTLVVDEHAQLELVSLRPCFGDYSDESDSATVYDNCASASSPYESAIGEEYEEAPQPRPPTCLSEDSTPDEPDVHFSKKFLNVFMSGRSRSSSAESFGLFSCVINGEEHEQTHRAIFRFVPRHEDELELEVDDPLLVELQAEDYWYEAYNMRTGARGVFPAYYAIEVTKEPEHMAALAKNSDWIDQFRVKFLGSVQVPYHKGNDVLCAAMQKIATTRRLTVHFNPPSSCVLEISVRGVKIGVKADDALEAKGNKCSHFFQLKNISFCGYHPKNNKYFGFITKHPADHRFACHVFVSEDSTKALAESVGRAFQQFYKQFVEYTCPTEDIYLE

[2] = target: T1, TAP-JIP1 (in Neuro2a) (mouse); test: pull-down; lysates of Neuro2a cells expressing TAP-JIP1 with T7-DLK-WT, T7-DLK-KR or empty vector (pUC8), precipitated with streptavidin sepharose, western blot of endogenous JIP3 and kinesin-1
[3] = target: T2, GFP-JIP1-F687V (mouse) (UniProt Q9WVI9); test: co-IP; lysates of differentiated Neuro2a cells expressing GFP-JIP1 constructs or GFP alone, immunoprecipitated with anti-GFP antibody, western blot of endogenous kinesin-1 (KHC), JNK and JIP3; 4 C, 150 mM NaCl, 20 mM Hepes pH 7.5, 0.5% Triton X-100
T2 sequence: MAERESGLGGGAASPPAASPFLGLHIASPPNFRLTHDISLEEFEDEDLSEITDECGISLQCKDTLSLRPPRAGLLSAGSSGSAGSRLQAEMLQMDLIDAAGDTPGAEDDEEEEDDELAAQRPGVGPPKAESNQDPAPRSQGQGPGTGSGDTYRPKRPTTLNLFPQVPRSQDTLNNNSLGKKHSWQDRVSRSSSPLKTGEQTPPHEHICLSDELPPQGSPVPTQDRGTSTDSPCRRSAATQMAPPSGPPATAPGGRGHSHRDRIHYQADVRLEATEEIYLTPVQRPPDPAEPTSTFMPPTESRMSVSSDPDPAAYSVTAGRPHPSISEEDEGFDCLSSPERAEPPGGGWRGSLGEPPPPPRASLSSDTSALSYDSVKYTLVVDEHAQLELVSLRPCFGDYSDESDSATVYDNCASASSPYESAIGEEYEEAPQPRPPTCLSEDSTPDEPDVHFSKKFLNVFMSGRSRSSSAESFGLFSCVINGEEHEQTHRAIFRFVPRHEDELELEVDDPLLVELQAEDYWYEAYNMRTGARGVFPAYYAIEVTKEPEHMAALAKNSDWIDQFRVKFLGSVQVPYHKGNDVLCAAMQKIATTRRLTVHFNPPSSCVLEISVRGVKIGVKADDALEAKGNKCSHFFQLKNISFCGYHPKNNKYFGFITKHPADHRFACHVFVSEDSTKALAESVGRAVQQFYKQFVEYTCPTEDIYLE

[4] = target: T3, GFP-JIP1-V581A (mouse) (UniProt Q9WVI9); test: as above
T3 sequence: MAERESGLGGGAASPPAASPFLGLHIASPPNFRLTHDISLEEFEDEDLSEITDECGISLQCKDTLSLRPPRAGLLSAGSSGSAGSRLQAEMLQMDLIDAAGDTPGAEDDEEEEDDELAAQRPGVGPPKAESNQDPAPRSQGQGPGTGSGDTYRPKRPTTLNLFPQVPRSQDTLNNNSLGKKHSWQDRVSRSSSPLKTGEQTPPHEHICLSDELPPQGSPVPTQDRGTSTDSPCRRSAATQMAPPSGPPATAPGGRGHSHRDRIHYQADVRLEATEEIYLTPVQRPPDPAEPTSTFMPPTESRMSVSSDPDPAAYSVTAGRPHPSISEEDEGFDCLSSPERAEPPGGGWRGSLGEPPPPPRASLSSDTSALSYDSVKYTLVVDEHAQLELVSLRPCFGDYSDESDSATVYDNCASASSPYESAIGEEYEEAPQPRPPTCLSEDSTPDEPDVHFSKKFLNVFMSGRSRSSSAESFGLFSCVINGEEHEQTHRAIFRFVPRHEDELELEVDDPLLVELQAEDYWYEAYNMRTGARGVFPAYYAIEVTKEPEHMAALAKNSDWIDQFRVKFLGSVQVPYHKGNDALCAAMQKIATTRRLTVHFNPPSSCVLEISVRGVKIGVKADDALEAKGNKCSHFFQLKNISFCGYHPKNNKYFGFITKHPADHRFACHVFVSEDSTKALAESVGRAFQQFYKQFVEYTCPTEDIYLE

B1: JIP3 (endogenous, Neuro2a) (protein, UniProt Q9ESN9 1-1337)
chain: MMEIQMDEGGGVVVYQDDYCSGSVMSERVSGLAGSIYREFERLIHCYDEEVVKELMPLVVNVLENLDSVLSENQEHEVELELLREDNEQLLTQYEREKALRKQAEEKFIEFEDALEQEKKELQIQVEHYEFQTRQLELKAKNYADQISRLEERESEMKKEYNALHQRHTEMIQTYVEHIERSKMQQVGGSGQTESSLPGRSRKERPTSLNVFPLADGMVRAQMGGKLVPAGDHWHLSDLGQLQSSSSYQCPNDEMSESGQSSAAATPSTTGTKSNTPTSSVPSAAVTPLNESLQPLGDYVSVTKNNKQAREKRNSRNMEVQVTQEMRNVSIGMGSSDEWSDVQDIIDSTPELDVCPETRLERTGSSPTQGIVNKAFGINTDSLYHELSTAGSEVIGDVDEGADLLGEFSVRDDFFGMGKEVGNLLLENSQLLETKNALNVVKNDLIAKVDQLSGEQEVLKGELEAAKQAKVKLENRIKELEEELKRVKSEAVTARREPREEVEDVSSYLCTELDKIPMAQRRRFTRVEMARVLMERNQYKERLMELQEAVRWTEMIRASREHPSVQEKKKSTIWQFFSRLFSSSSSPPPAKRSYPSVNIHYKSPTAAGFSQRRSHALCQISAGSRPLEFFPDDDCTSSARREQKREQYRQVREHVRNDDGRLQACGWSLPAKYKQLSPNGGQEDTRMKNVPVPVYCRPLVEKDPSTKLWCAAGVNLSGWKPHEEDSSNGPKPVPGRDPLTCDREGEGEPKSTHPSPEKKKAKETPEADATSSRVWILTSTLTTSKVVIIDANQPGTIVDQFTVCNAHVLCISSIPAASDSDYPPGEMFLDSDVNPEDSGADGVLAGITLVGCATRCNVPRSNCSSRGDTPVLDKGQGDVATTANGKVNPSQSTEEATEATEVPDPGPSESEATTVRPGPLTEHVFTDPAPTPSSSTQPASENGSESNGTIVQPQVEPSGELSTTTSSAAPTMWLGAQNGWLYVHSAVANWKKCLHSIKLKDSVLSLVHVKGRVLVALADGTLAIFHRGEDGQWDLSNYHLMDLGHPHHSIRCMAVVNDRVWCGYKNKVHVIQPKTMQIEKSFDAHPRRESQVRQLAWIGDGVWVSIRLDSTLRLYHAHTHQHLQDVDIEPYVSKMLGTGKLGFSFVRITALLIAGNRLWVGTGNGVVISIPLTETVVLHRGQLLGLRANKTSPTSGEGTRPGGIIHVYGDDSSDKAASSFIPYCSMAQAQLCFHGHRDAVKFFVSVPGNVLATLNGSVLDSPSEGPGPAAPAADAEGQKLKNALVLSGGEGYIDFRIGDGEDDETEECAGDVNQTKPSLSKAERSHIIVWQVSYTPE
[1]
  binding: binds
[2]
  binding: binds
[3]
  binding: no binding
[4]
  binding: no binding

Reference: PMC3599065
